Experimental findings from PubChem BioAssay (NCI) are described below.

Structures are written as SMILES. The source holds several records for some structures; these can differ, active in one and inactive in another.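 For each line, cells grew in 96-well plates with the test compound present at a single concentration for 48 hours.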 Some entries of the source have several records that differ or are many. The list is limited to them. Rule for the calls: active = growth percent below 10; inactive = the rest. There may be further records. This drug was run again and again over the years, at its own concentration, as given; one value stands for one run. Counts like (3×) stand for listed records that agree.

What all share (test): NCI-60 one-dose screen, 48 h (100 = growth as untreated, 0 = no growth, -100 = all killed)
The subject of one experiment is UO-31 renal. The following applies: 2.5 mM.
The subject of the next experiment is TK-10 renal. The following applies: 2.5 mM.
Another experiment relates to ACHN renal. The following applies: 2.5 mM; runs of 1991.

Turning to `O=c1[nH]cc(F)c(=O)[nH]1`, the growth entry was “active: -39.3, -35.6, -44.5, -27, -56.9, -37.4, -75.6, -24.2, -30.1, -42.5, -1.24, -52.7, -0.0809, 5.42, 2.39, -23.7, -3.26, -30.3, -34.2, 3.12, -4.77, 5.44, 4.93, -7.3, 0.556, 8.35, 7.6, -49.1, -41.8, 6.18, -0.804, -66% and inactive: 37.8, 21.3 (2×), 14.2, 29.7, 21.1, 14.3, 16.4, 20.8, 21.9, 18.5, 11.3, 18.8, 14.5%” in the experiment on UO-31 renal (runs of 1997); “active: 9.11, 1.36, 7.66, -23.4, 6.87, -1.86, -5.07, -22.2, -53.4, -0.513, -18.9, -46, 0.281, -35.2, -10, 1.69, 5.77, -35.1, -15.3, 5.91, -30, -40.3% and inactive: 26.4, 12.1, 12.5, 10%” in the experiment on UO-31 renal (runs of 1998); “active: 4.79, -0.968, -25.4, -71.6, -7.22, -25.7, -100 (3×), -90.9, -93.7, -95.9, -91.3, -92, -91.7, -89.7%” in the experiment with UO-31 renal (runs of 1999); “active: -73.2, -77.5, -70.1, -96.5%” in the experiment with UO-31 renal (runs of 2000); “inactive: 42.7, 20.4, 36.6, 41.3, 10.2, 17.9, 54.3, 35.3, 37.8, 31% and active: -6.03, -15.3, -1.32, -33.2, -1.03, -40.3, 1.81%” with TK-10 renal (runs of 1991); “inactive: 24.8, 43, 28.9, 42.7, 35.4, 38.2 (3×), 14.2, 33.6, 36.5, 24.2, 37.9, 42, 31.9, 29.2, 37.2, 56.6, 21.9, 31.8, 40.1 (3×), 18, 36.1, 30.2, 39.5, 29.1, 10.1 (2×), 20.2, 21.8, 47.5, 35, 71.2, 28.2, 39.6, 25.3, 51.5, 43.8, 41.8 (2×), 10.2, 12, 75.1, 31.6, 35.1, 74.6, 37.4, 29.8, 34.8, 48.4, 14.6, 48.8, 13.9, 27.6, 26.2, 45.9, 34.9, 34.3, 34.1, 11.3, 10.4, 11.7, 25, 81.4, 28.6, 25.7, 54.8, 31.7, 41.6, 38.4, 36.3, 16.9, 24.9, 11.6, 32.7, 27.7, 17.5, 34.4, 14.9, 28.7, 27.8, 41.2, 30, 25.2, 15.8% and active: -0.479, -5.32, -2.45, -2.09, -0.238, 8.33, 9.39, -12.6, -7.76, -10.9, -19.9, 5.81, -12.7, 5.86, -3.73, -16.9, 9.88, 5.61, 6.48, 2.61, 6.56, -9.71, -4.72, -0.534, -29.6, -10.1, -1.3, -3.17, -20.9, -19.1%” in the experiment on TK-10 renal (runs of 1992). In addition, the growth result in the experiment with TK-10 renal (runs of 1993) was “inactive: 56.1, 44.7, 28.9, 44.2, 43.7, 27.7, 33.4, 21.8, 32.7, 31.5, 43.1, 46.7, 41.8, 42.6, 33.2, 45.4, 57.8, 60.8, 42.7, 64.2, 32.9, 34.2, 14.3, 70.2, 42.4, 28.6, 20.8, 74.1, 20.9, 77.4, 14.4, 106, 12.3, 23.2, 16.8, 37.2, 21, 47.2, 34.1% and active: 2.17, 1.55, -13.4, -4.46, -2.9, -5.72, -0.931, -1.06%”; in the experiment with TK-10 renal (runs of 1994), “inactive: 53.4, 43.8, 21.8, 34.7 (2×), 22.9, 38.8, 35.4, 46.2, 19.1, 62.1, 24.4, 39.4, 43.1, 37.8, 29.3, 59.4, 29.8, 33.4, 35.8, 30.1, 54.7, 30.8, 30.5, 26.2, 87.6, 33.2, 14.9, 52.6, 20.3, 39.6% and active: -5.07%, -4.16%, -25.4%”; in the experiment on TK-10 renal (runs of 1995), “inactive: 45.6, 29.4, 29.9, 28.3, 71.1, 45.5, 37.9, 67, 15.4, 28.5, 63.2, 49.5, 69.3, 65, 45.8, 25.5, 74, 78.7, 17.7, 50.9, 48.6, 37.3, 59, 37.4, 50.1, 29.6, 32.1, 60.9, 11.9, 38.5, 38.3, 43.9, 14.2, 17.3, 23.9% and active: 0.941, -2.48, -8.98, -11.8, 8.78, -28.5, -13.8, 1.11, -14.1, -5.96, -14, -4.39, -3.08, -100, -78.7%”; with TK-10 renal (runs of 1996) it was “inactive: 15.5 (2×), 17.1, 32.8, 49, 12.1, 112, 25.9, 110, 18.6, 12.8, 58.5, 27.4, 40.1, 46.1, 190, 16.8, 33.1 (3×), 31.1, 30.8 (2×), 46.5, 39.1, 38.6, 48.5, 58.3, 46.7, 37.1, 41.3, 48 (2×), 43, 24.7, 47.8, 41.9, 16.5, 56.5, 47.7, 45.3, 46.6, 81.8, 39.2, 52.3, 54.4, 28.6, 43.7, 49.9, 16.7, 99.2, 12.9, 21.9, 34.7, 62.3, 36, 29.3, 36.9, 39.7, 45.5, 52.6, 31.9, 13, 18.2, 45, 33.7, 29.6, 27.1, 37.6, 42.8, 20.7, 14.8, 24.1, 62.7, 50.4% and active: -42.5, 4.52, -75.8, -100 (6×), -84.6, -6.28, -65.5, -79.2, -61.2, -3.19, 5.24, 8.05, -91.6, -6.17, -34.7, 4.58, -37.1, 1.73, -91.7, -80, -82.4, -79.1, -85, -81.5, 7.83, 2.53, 9.14, -12.7, 0.719, -2.08, -8.76, 4.35, 2.69, 1.89, -6.38%”; with TK-10 renal (runs of 1997) it was “active: -92.5, 6.14, -0.564, 1.09, 4.53, -4.01, -69.4, -23.3, -20.9, 8.34, -100, -10.8, 0.511, -8.03, 6.74, -36.9, -3.06, -10, -17.5, -31.4, 5.83, -34.9, 6.85, -7.93, -74.3, -85.2, -2.77, 6.05, 0.323, 0.52, -29.2% and inactive: 14, 12.5, 21.8, 28, 13.5, 45.5, 57.8, 47.5, 21.9, 15.1, 12.2, 27.7, 22.8, 16.2, 20.2, 14.6, 27.3, 34.2, 14.4, 29.7, 27.6, 15.8, 20.7, 111, 102, 27.4%”; in the experiment with TK-10 renal (runs of 1998), “inactive: 99.4, 28, 39.9, 38.8 (2×), 37.5 (3×), 38, 35.3, 50.3 (2×), 43.6, 52.3, 53.4, 35.1, 59.6, 46.3, 18.6, 64, 69, 58.1, 81, 53.3, 55.5, 58.8, 94.4, 46.7, 37.7, 23.1, 41.5, 51.6, 38.2, 50.4, 11.8, 35.2, 40.2, 60.8, 38.1, 31.8, 36.8, 65.8, 20.9, 26.4, 27.5, 32.6, 14.2, 40.9, 21, 22.1, 12.2, 43, 17.4, 15.7, 32.3, 16.3, 21.6, 38.5, 34.6, 47.3% and active: -86.2, -84.2 (2×), -83.6, -7.68, 1.13, -0.247, 5.84, -3.9, 2.99%”. In addition, the growth entry in the experiment with TK-10 renal (runs of 1999) is “inactive: 55, 48.4, 50.1, 31.1, 14.2, 17.4, 28.2, 44.6, 29.1, 23.6, 45.6, 27.4, 28.1% and active: -12.2, -100, -50.7, -41.4, -43.8, -58.3, -55.4, -75.6, -66.7, -58.9%”; with TK-10 renal (runs of 2000), “active: -70.1, -48.3, 1.08, -66.8%”; in the experiment on ACHN renal, “active: 6.59, 4.27, -14, 6.91, 7.69, -24.6, 6.58, 9.29, -20.1, -42% and inactive: 11.4, 11.6, 11.9 (2×), 12.2, 13.8, 17.9, 10.8, 18.6%”.
